Experimental data as given in publication PMC4336329 (PLoS ONE, 2015).
About 14,000 (4.5%) of roughly 310,000 compounds showed an effect of 50% or more. The effect is printed as a negative number. The list shows a part of the results.

target: human ether-à-go-go-related gene (hERG) potassium channel (human, UniProt Q12809); experiment: primary screen, population patch clamp on CHO cells stably expressing hERG
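Note: peak tail current of the secondary pulse compared with the same well before compound.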

human ether-à-go-go-related gene (hERG) potassium channel, sequence (Q12809 whole entry, looked up): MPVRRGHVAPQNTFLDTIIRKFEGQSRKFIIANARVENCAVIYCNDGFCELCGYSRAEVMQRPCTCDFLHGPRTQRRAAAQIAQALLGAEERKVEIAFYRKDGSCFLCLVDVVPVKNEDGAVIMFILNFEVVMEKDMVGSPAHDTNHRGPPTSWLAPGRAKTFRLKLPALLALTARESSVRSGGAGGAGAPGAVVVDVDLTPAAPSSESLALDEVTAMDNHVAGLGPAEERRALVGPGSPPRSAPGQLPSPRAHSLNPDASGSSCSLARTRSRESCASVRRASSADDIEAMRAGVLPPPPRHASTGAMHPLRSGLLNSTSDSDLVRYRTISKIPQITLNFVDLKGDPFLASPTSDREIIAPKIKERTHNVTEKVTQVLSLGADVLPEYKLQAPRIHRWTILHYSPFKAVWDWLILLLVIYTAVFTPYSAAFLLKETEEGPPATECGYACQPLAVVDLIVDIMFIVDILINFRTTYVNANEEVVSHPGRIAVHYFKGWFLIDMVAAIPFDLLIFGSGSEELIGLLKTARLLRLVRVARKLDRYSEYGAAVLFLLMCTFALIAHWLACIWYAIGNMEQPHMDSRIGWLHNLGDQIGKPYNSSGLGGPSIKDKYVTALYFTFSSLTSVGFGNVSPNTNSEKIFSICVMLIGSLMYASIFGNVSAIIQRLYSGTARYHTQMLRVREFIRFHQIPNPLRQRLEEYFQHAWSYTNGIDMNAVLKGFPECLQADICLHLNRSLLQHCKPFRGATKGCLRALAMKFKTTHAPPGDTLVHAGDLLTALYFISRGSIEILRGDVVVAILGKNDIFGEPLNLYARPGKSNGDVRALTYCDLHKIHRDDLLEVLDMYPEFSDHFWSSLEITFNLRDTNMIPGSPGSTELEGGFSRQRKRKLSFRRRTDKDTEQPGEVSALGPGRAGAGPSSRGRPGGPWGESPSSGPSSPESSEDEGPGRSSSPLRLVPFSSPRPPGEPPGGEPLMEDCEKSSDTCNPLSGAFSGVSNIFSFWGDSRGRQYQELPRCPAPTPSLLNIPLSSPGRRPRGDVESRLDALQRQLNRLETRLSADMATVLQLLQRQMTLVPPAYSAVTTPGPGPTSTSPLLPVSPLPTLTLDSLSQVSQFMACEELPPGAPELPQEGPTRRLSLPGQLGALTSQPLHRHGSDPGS

SMILES | hERG current change (%, negative = inhibition) at 10uM [%]
Cc1nc(N)c(C#N)c(-c2cccnc2)c1C | -6.62
COCCN(C(=S)Nc1cccc(C)c1C)C(C)c1ccco1 (stereo not shown) | -1.08
CNC(=O)c1cc(-c2ccc(Cl)cc2)n(-c2ccccc2)n1 | 4.41
CCc1nn(C)c(-c2n[nH]c(=S)n2N)c1Cl | 21
O=C1CN(C(=O)c2c(F)cccc2F)C(c2ccc(F)cc2)c2cc(F)ccc2N1 (stereo not shown) | -24.6
CCCC(c1nnnn1Cc1ccc(F)cc1)N1CCN(C)CC1 (stereo not shown) | -2.88
COc1ccccc1NC(=O)Cn1c(=O)oc2ccccc21 | 4.67
Cc1cccc(NC(=O)CN(C2=NC3CS(=O)(=O)CC3S2)c2ccccc2F)c1 (stereo not shown) | 10.1
CNc1nc(NCc2ccccc2)c2ccccc2n1.Cl | -68.1
CN(C)c1ccc(NC(=O)CSc2nnc(C3CCCCC3)n2N)cc1 | 16.6
C=CCNC(=O)CN1N=C(c2ccc(C)cc2)CCC1=O | -44.3
Cc1cccc(N2CCN(C(=O)Cc3ccc(-n4c(=O)[nH]c5ccsc5c4=O)cc3)CC2)c1C | 0.15
COc1ccccc1NC(=O)CCN1C(=O)C2CC=C(Cl)CC2C1=O (stereo not shown) | -2.46
Nc1sc2c(c1C(=O)NC1CCS(=O)(=O)C1)CCCC2 (stereo not shown) | 19.1
O=C(NCc1ccc(F)cc1)c1cc(S(=O)(=O)N2CCCCC2)ccc1N1CCOCC1 | -33.4
O=S(=O)(c1ccc(Br)cc1)N1CCN(Cc2ccco2)CC1 | -27.7
Cc1ccsc1/C=C1/CN(C)Cc2c1nc1ccccc1c2C(=O)O.Cl | 13.3
N#CCSc1nc2ccccc2c(=O)n1CC1CCCC1 | 46.7
CN1CCN(Cc2nc3c(c(=O)[nH]c(=O)n3C)n2Cc2c(F)cccc2Cl)CC1 | -1.86
Cc1ccc(S(=O)(=O)c2ccc(Oc3cccc(C)c3)cc2)cc1 | -3.3

SMILES | hERG current change (%, negative = inhibition) at 10uM [%]
Cc1cc(C)n(CCCNC(=O)c2cc(COc3ccc(C)c(C)c3)on2)n1 | -42.8
CCOC(=O)C1(CC2CCCCO2)CCN(C(=O)NCc2ccccc2)CC1 (stereo not shown) | -4.48
COc1ccc(CNC(=O)Cn2nc(C(F)(F)F)c3c2CCC3)cc1 | -5.16
CC(NC(=O)CN(c1cccc(C(F)(F)F)c1)S(C)(=O)=O)c1ccccc1 (stereo not shown) | 13.2
O=C(CSc1nc2ccccc2s1)N1CCOCC1 | 19.4
O=C(CCN1C(=O)/C(=C/c2cccs2)SC1=S)Nc1cccc(O)c1 | 4.92
Cc1c(NC(=O)C(C)OC(=O)c2c3c(nc4ccccc24)CCC(C)C3)c(=O)n(-c2ccccc2)n1C (stereo not shown) | -2.21
COc1cccc(CC2(CO)CCN(Cc3cnc(-c4cccc(C)c4)nc3)CC2)c1 | -19.9
O=C(CSCc1ccc([N+](=O)[O-])cc1)N/N=C/c1cccnc1 | -60.2
CC(=O)OC1OCCOC1NC(=S)NCc1ccco1 (stereo not shown) | 3.3
O=C(CCc1ccccc1)NCCc1cccs1 | -15.5
C=CCN1C(=O)/C(=C\c2ccc(Cl)cc2)N=C1SCC(=O)NCCC | 14.8
CCn1c(COc2cccc(OC)c2)nnc1SCC(=O)Nc1cc(OC)ccc1OC | -16.9
COCCN(CCOC)Cc1c(C)[nH]c2ccccc2c1=O | 2.03
Cc1csc(NC(=O)c2cc3c(C)nn(Cc4ccccc4Cl)c3s2)n1 | 8.85
COCCN(C(=O)CSc1nnc(-c2ccccc2C)n1C)c1c(N)n(Cc2ccccc2)c(=O)[nH]c1=O | 38.4
Cc1c(-c2ccc(F)cc2)[n+](=O)c(-c2ccc(F)cc2)c(C)n1[O-] | 13.5
Cc1ccc2c(c1)cc1c(=O)n(CC(=O)NCCN3CCCC3)nc(C)n12 | -3.34
Br.COc1ccc(C2=CSC3=NCCN23)cc1OC | -6.58
CN(C)c1ccnc(-n2cccc2/C=N/O)c1C#N | 14.3

SMILES | hERG current change (%, negative = inhibition) at 10uM [%]
COC(=O)[C@@H]1C[C@@]1(C)[C@@H](NP(=O)(c1ccccc1)c1ccccc1)c1ccccc1 | 4.33
Cc1cc(-c2n[nH]c(=S)o2)c(C)n1-c1ccccc1 | 4.79
O=C(CSc1nc2ncccc2[nH]1)c1cccc([N+](=O)[O-])c1 | -6.11
OC(C[n+]1ccccc1)c1ccccc1.[Br-] (stereo not shown) | 18.7
Brc1ccc(-c2cn3nc4c(nc3n2)CCCC4)cc1 | -31.4
COC(=O)c1ccc(CNC(=O)C2CCC(=O)N(CCCc3ccccc3)C2)cc1 (stereo not shown) | -29.4
COc1ccc(S(=O)(=O)N2CCCCCC2)cc1NC(=O)c1ccccc1F | 3.54
Cc1cc(N)ccc1S(C)(=O)=O | 9.43
CC(=O)Nc1ccc(NC(=O)COC(=O)c2cnccn2)cc1 | 18.3
COc1ccc(CN2CCCC(C(=O)c3ccc(Cl)cc3)C2)c(O)c1 (stereo not shown) | -67.7
CCOC(=O)C(=O)NC12CC3CC(CC(C3)C1)C2 | 29.5
CCOP1(=O)C=C(C(C)(C)C)OC1c1ccc(F)cc1 (stereo not shown) | 0.676
CC1CCN(C(=O)C(C)Sc2nc(-c3ccccc3)cc(C(F)(F)F)n2)CC1 (stereo not shown) | -3.04
CN1CCC(NC(=O)Nc2cccc(C(F)(F)F)c2)CC1 | -0.705
Cc1nc2ccccc2n1CCOc1ccccc1 | 6.17
COc1ccccc1NC(=O)Cc1csc(NC(=S)Nc2ccccc2)n1 | 10.4
O=C(NCc1ccc2c(c1)OCO2)c1ccc(-n2cnnn2)cc1 | -19.9
CCCc1cc(C(=O)Nc2c(C)n(C)n(-c3ccccc3)c2=O)no1 | 6.88
